Data set [1] relates to thrombotic stroke (blood clot in middle cerebral artery). Conditions: rat, in vivo.
For data set [2] the test system is unchanged.

The substance tissue plasminogen activator [tPA] had a Death rate in data set [1] of 31%. Moreover, the “reduction in infarct volume” value in data set [2] (3 days after occlusion) amounted to 69%. In data set [2] (rat, in vivo, iv), the “Reperfusion rate after IV tPA” value amounted to 21 ± 17%. Also, the “infarct size (% of the whole brain)” value in data set [2] (tPA 10 mg/kg IV at 2 hours after occlusion, Xe-ELIP IV before tPA with ultrasound) is listed as 5.2±0.4%.

Source of the values: patent US11872312B2, “Neuroprotective liposome compositions and methods for treatment of stroke” (The Board of Regents of The University of Texas System, priority 2012, dated 2024).
